This is an account of results in a collection of fitness landscapes (doi:10.1126/science.1257360).

The list shows a part of the results. Where only a bound is given, the exact number is not on record here.

The chains are these.
B1: PhoQ; a variant is named by its letters at X, in order, P23837 (parent)
chain: MKKLLRLFFPLSLRVRFLLATAAVVLVLSLAYGMVALIGYSVSFDKTTFRLLRGESNLFYTLAKWENNKLHVELPENIDKQSPTMTLIYDENGQLLWAQRDVPWLMKMIQPDWLKSNGFHEIEADVNDTSLLLSGDHSIQQQLQEVREDDDDAEMTHSVAVNVYPATSRMPKLTIVVVDTIPVELKSSYMVWSWFIYVLSANLLLVIPLLWVAAWWSLRPIEALAKEVRELEEHNRELLNPATTRELTSLVRNLNRLLKSERERYDKYRTTLTDLTHSLKTPLXXLQXXLRSLRSEKMSVSDAEPVMLEQISRISQQIGYYLHRASMRGGTLLSRELHPVAPLLDNLTSALNKVYQRKGVNISLDISPEISFVGEQNDFVEVMGNVLDNACKYCLEFVEISARQTDEHLYIVVEDDGPGIPLSKREVIFDRGQRVDTLRPGQGVGLAVAREITEQYEGKIVAGESMLGGARMEVIFGRQHSAPKDE

The assay covers variants of B1. As to the kind of experiment: enrichment ratio after two sorts for PhoP signalling (ratio (wild type AVST 3.29)); higher = more functional. The note with it: with PhoP (E. coli).
As to KGSV, the enrichment ratio is at most 0.25. Consider YVIA, for which the enrichment ratio was at most 0.25. For FCLK, the enrichment ratio was 1.84. Then VPGW, with at most 0.25. Under DCHQ stands at most 0.25; under APFN, at most 0.25; under MYME, at most 0.25. Under SAEW stands at most 0.25. Turning to RHKL, the enrichment ratio was at most 0.25.

Take HVRG: the enrichment ratio was at most 0.25. Then HSHW, with at most 0.25; and EPNR, with at most 0.25; and RCRG, with at most 0.25. Then TPMG, with at most 0.25. As to WMCV, the enrichment ratio was at most 0.25.

Turning to HSFD, the enrichment ratio is at most 0.25.

For the variant QQSN, the enrichment ratio is at most 0.25.

Regarding GQDK, the enrichment ratio is at most 0.25. Under EQCS stands at most 0.25; under KAKF, at most 0.25. Then QPFT, with at most 0.25; and ESAR, with at most 0.25; and KSRL, with at most 0.25. Regarding ACGI, the enrichment ratio was determined as 10.9. Then MVIC, with at most 0.25; and YFCI, with at most 0.25.

As for SVNQ, the enrichment ratio is at most 0.25.

For the variant MAKM, the enrichment ratio is at most 0.25.

In the case of VYNF, the enrichment ratio was at most 0.25. Under GWMD stands at most 0.25; under TFKC, at most 0.25; under KKSV, at most 0.25. Under STVY stands 8.93; under HKQE, at most 0.25.

Regarding QATG, the enrichment ratio was at most 0.25. Then KGCW, with at most 0.25. As for DKRF, the enrichment ratio was at most 0.25. Regarding MFGQ, the enrichment ratio was at most 0.25.

Consider SYRQ, for which the enrichment ratio was at most 0.25.

As to SDTP, the enrichment ratio was at most 0.25. In the case of AADH, the enrichment ratio was at most 0.25. Regarding LRGP, the enrichment ratio is at most 0.25.

With GGDA, the enrichment ratio is at most 0.25. As for TKSE, the enrichment ratio was 1.37. VQNF: the enrichment ratio was at most 0.25. Then GDFG, with at most 0.25; and MKKG, with at most 0.25; and GPDH, with at most 0.25. NIHC: the enrichment ratio was at most 0.25.

As for PEPT, the enrichment ratio is at most 0.25.

On to LSMV, for which the enrichment ratio turned out to be 7.72. Under HHAQ stands at most 0.25; under HGTC, at most 0.25; under QYCT, at most 0.25. Under GTNG stands at most 0.25; under LVTG, at most 0.25. Then TPYR, with at most 0.25. For the variant NRCL, the enrichment ratio was 0.323. IQKP: the enrichment ratio is at most 0.25. Under DFAN stands at most 0.25.

For ICFC, the enrichment ratio was at most 0.25.

For YTKD, the enrichment ratio was at most 0.25. As for AQVQ, the enrichment ratio was found to be 10.3. Then CIID, with at most 0.25; and QCGS, with at most 0.25. Then VYMA, with at most 0.25. With IPLT, the enrichment ratio is at most 0.25. SDKG: the enrichment ratio was at most 0.25. Take HEDH: the enrichment ratio is at most 0.25. Consider GCLA, for which the enrichment ratio amounted to 6.8. For the variant FPYP, the enrichment ratio is at most 0.25. Under VVDP stands at most 0.25. Then GEPW, with at most 0.25; and YEGH, with at most 0.25; and EGQR, with at most 0.25. Under FEYY stands at most 0.25. As to SFIR, the enrichment ratio was at most 0.25.

On to HAFQ, for which the enrichment ratio was at most 0.25.

On to GDYG, for which the enrichment ratio is at most 0.25.

For PTNT, the enrichment ratio is at most 0.25. As for MMGH, the enrichment ratio was at most 0.25. On to HKGR, for which the enrichment ratio was at most 0.25. Then DWFD, with at most 0.25; and YQTL, with at most 0.25; and QLIG, with at most 0.25. Consider PING, for which the enrichment ratio was at most 0.25. Under EGHP stands at most 0.25; under PPPS, at most 0.25.

As to TQFE, the enrichment ratio was 2.17.

As for QEGC, the enrichment ratio is at most 0.25. On to SQDY, for which the enrichment ratio is at most 0.25.

Consider VTEV, for which the enrichment ratio was at most 0.25. Consider LTRK, for which the enrichment ratio is at most 0.25. With TAQK, the enrichment ratio was 6.87. Consider FKPQ, for which the enrichment ratio is at most 0.25. For LLCV, the enrichment ratio was at most 0.25.

In the case of LPMQ, the enrichment ratio was at most 0.25.

On to VYSS, for which the enrichment ratio is at most 0.25. For the variant WRCN, the enrichment ratio is at most 0.25.

Consider LYKN, for which the enrichment ratio is at most 0.25.

For QGVC, the enrichment ratio was at most 0.25.

ITSY: the enrichment ratio was at most 0.25.

For the variant ACCS, the enrichment ratio stood at 2.23.

For the variant TCAK, the enrichment ratio is 11.2. Under KIQK stands at most 0.25; under YQNS, at most 0.25. Under YMAQ stands at most 0.25; under IKDL, at most 0.25; under PGTW, at most 0.25. For the variant ESWT, the enrichment ratio is at most 0.25. Consider RCCP, for which the enrichment ratio was at most 0.25. For MPYN, the enrichment ratio was at most 0.25. Then EMAG, with at most 0.25; and LMWN, with at most 0.25. Under TDSK stands at most 0.25; under PDHA, at most 0.25. Then FKIG, with at most 0.25; and DVAH, with at most 0.25. Regarding IYII, the enrichment ratio was at most 0.25. With YKPF, the enrichment ratio is at most 0.25. Then CFCL, with at most 0.25; and DKGT, with at most 0.25. Then NFLH, with at most 0.25; and PDTG, with at most 0.25; and AYLL, with at most 0.25. Then FDWG, with at most 0.25. As to NRIM, the enrichment ratio is at most 0.25. Then ATHK, with at most 0.25. Then HHYF, with at most 0.25; and APRV, with at most 0.25; and PMYQ, with at most 0.25.

Consider DTFS, for which the enrichment ratio is at most 0.25.

For SCVD, the enrichment ratio is at most 0.25.

As to KIQM, the enrichment ratio was at most 0.25. On to YPTT, for which the enrichment ratio is at most 0.25. Under NMNV stands at most 0.25. Then ILGT, with at most 0.25. As for SGRD, the enrichment ratio is at most 0.25. In the case of VHRY, the enrichment ratio was at most 0.25.

For the variant RAWV, the enrichment ratio was at most 0.25. Then DSRW, with at most 0.25; and WVWD, with at most 0.25.

Take TTHS: the enrichment ratio was 8.9. Under ASTP stands at most 0.25; under IHHS, at most 0.25. Under NYVA stands at most 0.25. As for FGWA, the enrichment ratio is at most 0.25. PKHF: the enrichment ratio was at most 0.25. For the variant LILY, the enrichment ratio was at most 0.25. Under TETN stands 24.4; under FPRF, at most 0.25. In the case of SHQT, the enrichment ratio is at most 0.25. With DRTL, the enrichment ratio is at most 0.25.
